PMC8354638
Like-named read-outs stand apart in the source and are kept apart here. These are yes or no findings as the source states them, for the method shown. Binding seen in cells or lysates may run through a third protein. Some binding calls cover weakened binding; strength is not graded here. Tags and fused reporters may be left off the sequences shown.

Sequences of proteins named here, by UniProt entry; tags and fusion partners are left off.
UniProt Q9Y4B6: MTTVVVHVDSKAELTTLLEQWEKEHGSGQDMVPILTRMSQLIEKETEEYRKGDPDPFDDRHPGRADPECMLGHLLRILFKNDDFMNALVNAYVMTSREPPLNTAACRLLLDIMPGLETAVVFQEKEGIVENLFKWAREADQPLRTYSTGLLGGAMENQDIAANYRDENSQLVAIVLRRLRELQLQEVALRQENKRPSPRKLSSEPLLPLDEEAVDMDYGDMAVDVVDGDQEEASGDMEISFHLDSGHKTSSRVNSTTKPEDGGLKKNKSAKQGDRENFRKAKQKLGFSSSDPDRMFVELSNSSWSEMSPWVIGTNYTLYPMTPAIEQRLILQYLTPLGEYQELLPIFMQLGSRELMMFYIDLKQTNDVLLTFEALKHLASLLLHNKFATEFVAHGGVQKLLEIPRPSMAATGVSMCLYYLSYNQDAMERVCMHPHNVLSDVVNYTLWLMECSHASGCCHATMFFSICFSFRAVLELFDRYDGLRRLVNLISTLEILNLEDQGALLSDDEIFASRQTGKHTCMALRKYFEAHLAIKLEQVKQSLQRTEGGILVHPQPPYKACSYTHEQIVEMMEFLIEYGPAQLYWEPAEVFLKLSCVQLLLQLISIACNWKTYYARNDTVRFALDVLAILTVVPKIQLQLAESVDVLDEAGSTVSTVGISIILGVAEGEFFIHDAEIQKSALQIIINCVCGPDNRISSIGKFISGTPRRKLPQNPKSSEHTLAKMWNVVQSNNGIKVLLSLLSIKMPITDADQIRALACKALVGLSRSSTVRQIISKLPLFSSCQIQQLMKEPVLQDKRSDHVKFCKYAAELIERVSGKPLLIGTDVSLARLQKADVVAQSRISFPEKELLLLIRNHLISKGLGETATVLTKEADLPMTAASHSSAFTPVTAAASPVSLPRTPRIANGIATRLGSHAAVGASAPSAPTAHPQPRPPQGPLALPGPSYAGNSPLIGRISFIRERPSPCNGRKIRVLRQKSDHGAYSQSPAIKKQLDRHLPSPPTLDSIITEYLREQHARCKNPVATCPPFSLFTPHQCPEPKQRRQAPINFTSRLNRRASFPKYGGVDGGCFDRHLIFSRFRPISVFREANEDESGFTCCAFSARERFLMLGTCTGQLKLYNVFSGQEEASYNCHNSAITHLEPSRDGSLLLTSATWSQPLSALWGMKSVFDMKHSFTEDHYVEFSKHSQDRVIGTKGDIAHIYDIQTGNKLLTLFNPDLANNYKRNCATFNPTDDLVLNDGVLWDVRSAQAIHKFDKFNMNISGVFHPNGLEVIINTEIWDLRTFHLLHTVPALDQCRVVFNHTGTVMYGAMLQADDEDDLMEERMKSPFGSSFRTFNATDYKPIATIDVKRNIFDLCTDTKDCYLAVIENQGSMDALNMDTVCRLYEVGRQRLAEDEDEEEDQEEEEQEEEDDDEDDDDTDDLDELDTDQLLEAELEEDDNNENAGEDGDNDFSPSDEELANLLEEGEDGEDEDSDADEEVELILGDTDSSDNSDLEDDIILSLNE

T1: FLAG-CEP78 (human) (UniProt Q5JTW2)
T1 sequence: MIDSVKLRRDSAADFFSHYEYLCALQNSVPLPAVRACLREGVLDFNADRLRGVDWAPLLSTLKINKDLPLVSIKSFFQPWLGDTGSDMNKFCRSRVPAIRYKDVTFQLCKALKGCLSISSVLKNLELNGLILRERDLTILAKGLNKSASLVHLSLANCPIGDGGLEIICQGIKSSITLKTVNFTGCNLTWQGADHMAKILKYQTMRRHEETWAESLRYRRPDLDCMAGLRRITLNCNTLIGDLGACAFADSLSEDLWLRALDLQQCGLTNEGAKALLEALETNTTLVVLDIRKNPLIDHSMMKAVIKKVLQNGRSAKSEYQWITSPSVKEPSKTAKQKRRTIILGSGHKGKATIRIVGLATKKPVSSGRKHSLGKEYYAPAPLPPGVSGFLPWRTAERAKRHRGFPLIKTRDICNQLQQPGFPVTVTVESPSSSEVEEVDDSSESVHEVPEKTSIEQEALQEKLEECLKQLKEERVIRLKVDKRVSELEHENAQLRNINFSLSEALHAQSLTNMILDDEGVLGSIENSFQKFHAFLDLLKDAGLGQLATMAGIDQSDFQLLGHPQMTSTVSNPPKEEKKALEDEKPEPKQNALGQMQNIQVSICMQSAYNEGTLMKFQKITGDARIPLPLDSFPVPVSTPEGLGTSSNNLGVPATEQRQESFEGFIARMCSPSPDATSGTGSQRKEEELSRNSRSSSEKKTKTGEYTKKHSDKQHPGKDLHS

T2: Myc-CEP350 N-terminus (aa1-983) (human) (UniProt Q5VT06)
T2 sequence: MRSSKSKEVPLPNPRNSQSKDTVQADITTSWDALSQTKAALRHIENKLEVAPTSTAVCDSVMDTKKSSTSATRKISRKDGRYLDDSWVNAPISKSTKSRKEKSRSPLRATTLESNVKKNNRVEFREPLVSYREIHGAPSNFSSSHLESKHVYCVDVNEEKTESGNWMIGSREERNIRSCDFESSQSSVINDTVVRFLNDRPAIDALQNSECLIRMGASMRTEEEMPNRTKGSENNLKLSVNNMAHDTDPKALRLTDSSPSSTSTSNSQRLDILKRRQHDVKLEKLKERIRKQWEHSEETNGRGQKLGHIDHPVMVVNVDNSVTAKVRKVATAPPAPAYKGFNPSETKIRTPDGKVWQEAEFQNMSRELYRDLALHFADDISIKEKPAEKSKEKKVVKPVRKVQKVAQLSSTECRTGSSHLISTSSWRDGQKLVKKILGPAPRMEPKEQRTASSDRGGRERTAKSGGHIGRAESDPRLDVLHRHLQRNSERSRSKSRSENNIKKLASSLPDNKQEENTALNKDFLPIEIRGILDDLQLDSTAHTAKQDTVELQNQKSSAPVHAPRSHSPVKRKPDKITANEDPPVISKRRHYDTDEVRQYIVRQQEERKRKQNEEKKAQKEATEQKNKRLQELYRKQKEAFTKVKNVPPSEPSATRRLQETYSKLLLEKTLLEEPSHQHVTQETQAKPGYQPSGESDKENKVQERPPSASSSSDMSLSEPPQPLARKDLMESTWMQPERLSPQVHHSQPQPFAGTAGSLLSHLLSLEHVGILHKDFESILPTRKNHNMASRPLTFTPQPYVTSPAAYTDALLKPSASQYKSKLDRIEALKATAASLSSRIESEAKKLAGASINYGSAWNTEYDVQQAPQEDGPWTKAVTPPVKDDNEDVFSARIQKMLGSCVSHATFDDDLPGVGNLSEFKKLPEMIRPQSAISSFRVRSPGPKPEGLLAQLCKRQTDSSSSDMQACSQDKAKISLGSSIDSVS

T3: GFP-CEP78 (human) (UniProt Q5JTW2)
T3 sequence: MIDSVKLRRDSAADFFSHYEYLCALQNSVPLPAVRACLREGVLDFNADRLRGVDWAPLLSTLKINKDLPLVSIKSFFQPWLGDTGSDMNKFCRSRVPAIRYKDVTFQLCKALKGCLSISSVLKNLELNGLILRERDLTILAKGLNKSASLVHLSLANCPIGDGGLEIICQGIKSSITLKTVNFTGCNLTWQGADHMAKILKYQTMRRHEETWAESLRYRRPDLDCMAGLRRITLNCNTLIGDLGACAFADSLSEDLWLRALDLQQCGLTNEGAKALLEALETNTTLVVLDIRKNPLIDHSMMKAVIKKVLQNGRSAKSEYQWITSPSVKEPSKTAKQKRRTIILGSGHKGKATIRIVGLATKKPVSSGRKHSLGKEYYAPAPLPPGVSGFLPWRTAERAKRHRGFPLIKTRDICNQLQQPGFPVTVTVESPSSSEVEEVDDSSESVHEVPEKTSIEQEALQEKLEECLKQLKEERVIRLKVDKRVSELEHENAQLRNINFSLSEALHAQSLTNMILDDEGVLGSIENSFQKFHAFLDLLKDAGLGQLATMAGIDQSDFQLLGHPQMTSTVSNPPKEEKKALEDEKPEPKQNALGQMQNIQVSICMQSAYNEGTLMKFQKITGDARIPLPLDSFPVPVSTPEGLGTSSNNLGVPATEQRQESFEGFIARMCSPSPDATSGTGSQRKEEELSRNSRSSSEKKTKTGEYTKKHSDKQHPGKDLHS

T4: Myc-CEP350 C-terminus (aa2990-3117) (human) (UniProt Q5VT06)
T4 sequence: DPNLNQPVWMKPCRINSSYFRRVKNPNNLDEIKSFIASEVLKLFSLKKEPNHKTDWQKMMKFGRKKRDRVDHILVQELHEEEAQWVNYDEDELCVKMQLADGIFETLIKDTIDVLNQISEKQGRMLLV

B1: FLAG-CEP78 (protein, UniProt Q5JTW2-2 1-722)
chain: MIDSVKLRRDSAADFFSHYEYLCALQNSVPLPAVRACLREGVLDFNADRLRGVDWAPLLSTLKINKDLPLVSIKSFFQPWLGDTGSDMNKFCRSRVPAIRYKDVTFQLCKALKGCLSISSVLKNLELNGLILRERDLTILAKGLNKSASLVHLSLANCPIGDGGLEIICQGIKSSITLKTVNFTGCNLTWQGADHMAKILKYQTMRRHEETWAESLRYRRPDLDCMAGLRRITLNCNTLIGDLGACAFADSLSEDLWLRALDLQQCGLTNEGAKALLEALETNTTLVVLDIRKNPLIDHSMMKAVIKKVLQNGRSAKSEYQWITSPSVKEPSKTAKQKRRTIILGSGHKGKATIRIVGLATKKPVSSGRKHSLGKEYYAPAPLPPGVSGFLPWRTAERAKRHRGFPLIKTRDICNQLQQPGFPVTVTVESPSSSEVEEVDDSSESVHEVPEKTSIEQEALQEKLEECLKQLKEERVIRLKVDKRVSELEHENAQLRNINFSLSEALHAQSLTNMILDDEGVLGSIENSFQKFHAFLDLLKDAGLGQLATMAGIDQSDFQLLGHPQMTSTVSNPPKEEKKALEDEKPEPKQNALGQMQNIQVSICMQSAYNEGTLMKFQKITGDARIPLPLDSFPVPVSTPEGLGTSSNNLGVPATEQRQESFEGFIARMCSPSPDATSGTGSQRKEEELSRNSRSSSEKKTKTGEYTKKHSDKQHPGKDLHS
B2: GFP-CEP78 (protein, UniProt Q5JTW2-2 1-722)
chain: MIDSVKLRRDSAADFFSHYEYLCALQNSVPLPAVRACLREGVLDFNADRLRGVDWAPLLSTLKINKDLPLVSIKSFFQPWLGDTGSDMNKFCRSRVPAIRYKDVTFQLCKALKGCLSISSVLKNLELNGLILRERDLTILAKGLNKSASLVHLSLANCPIGDGGLEIICQGIKSSITLKTVNFTGCNLTWQGADHMAKILKYQTMRRHEETWAESLRYRRPDLDCMAGLRRITLNCNTLIGDLGACAFADSLSEDLWLRALDLQQCGLTNEGAKALLEALETNTTLVVLDIRKNPLIDHSMMKAVIKKVLQNGRSAKSEYQWITSPSVKEPSKTAKQKRRTIILGSGHKGKATIRIVGLATKKPVSSGRKHSLGKEYYAPAPLPPGVSGFLPWRTAERAKRHRGFPLIKTRDICNQLQQPGFPVTVTVESPSSSEVEEVDDSSESVHEVPEKTSIEQEALQEKLEECLKQLKEERVIRLKVDKRVSELEHENAQLRNINFSLSEALHAQSLTNMILDDEGVLGSIENSFQKFHAFLDLLKDAGLGQLATMAGIDQSDFQLLGHPQMTSTVSNPPKEEKKALEDEKPEPKQNALGQMQNIQVSICMQSAYNEGTLMKFQKITGDARIPLPLDSFPVPVSTPEGLGTSSNNLGVPATEQRQESFEGFIARMCSPSPDATSGTGSQRKEEELSRNSRSSSEKKTKTGEYTKKHSDKQHPGKDLHS
B3: endogenous FOP (protein, UniProt O95684 1-399)
chain: MAATAAAVVAEEDTELRDLLVQTLENSGVLNRIKAELRAAVFLALEEQEKVENKTPLVNESLKKFLNTKDGRLVASLVAEFLQFFNLDFTLAVFQPETSTLQGLEGRENLARDLGIIEAEGTVGGPLLLEVIRRCQQKEKGPTTGEGALDLSDVHSPPKSPEGKTSAQTTPSKIPRYKGQGKKKTSGQKAGDKKANDEANQSDTSVSLSEPKSKSSLHLLSHETKIGSFLSNRTLDGKDKAGLCPDEDDMEGDSFFDDPIPKPEKTYGLRKEPRKQAGSLASLSDAPPLKSGLSSLAGAPSLKDSESKRGNTVLKDLKLISDKIGSLGLGTGEDDDYVDDFNSTSHRSEKSEISIGEEIEEDLSVEIDDINTSDKLDDLTQDLTVSQLSDVADYLEDVA

What was measured:
FLAG-CEP78 (human) [1] = target: T1, FLAG-CEP78 (human); test: co-IP; transfected 293T cell lysates (modified EBC buffer), IP with anti-FLAG beads, western blot of the pellets
[2] = target: T2, Myc-CEP350 N-terminus (aa1-983) (human); test: co-IP; transfected 293T cell lysates (modified EBC buffer), IP with Myc antibody-coated beads, western blot with VPRBP, Myc, FOP or GFP antibodies
GFP-CEP78 (human) = target: T3, GFP-CEP78 (human); test: co-IP; transfected 293T cell lysates (modified EBC buffer), IP with GFP antibody beads, western blot with Myc, GFP, FOP or VPRBP antibodies
FLAG-CEP78 (human) [3] = target: T1, FLAG-CEP78 (human); test: co-IP; transfected 293T cell lysates (modified EBC buffer), IP with anti-FLAG beads, western blot of the pellets; remark: listed apart in the source
[4] = target: T4, Myc-CEP350 C-terminus (aa2990-3117) (human); test: co-IP; transfected 293T cell lysates (modified EBC buffer), IP with Myc antibody-coated beads, western blot with VPRBP, Myc, FOP or GFP antibodies

Row | Molecule | binding [2] | binding (GFP-CEP78 (human)) | further results
1 | Myc-VPRBP (from UniProt Q9Y4B6 1-1507) |  |  | binding (FLAG-CEP78 (human) [1]): binds
2 | endogenous VPRBP (from UniProt Q9Y4B6 1-1507) | no binding | binds | 
3 | B1 |  |  | binding (FLAG-CEP78 (human) [3]): binds
4 | B2 | binds |  | 
5 | B3 |  | no binding | binding [4]: binds
